Experimental data: paper PMC4336329 (PLoS ONE, 2015)
In all, about 310,000 compounds went through this assay and about 14,000 (4.5%) showed an effect of 50% or more. The effect is printed as a negative number. This is one part of the list.

What follows are compounds tested against human ether-à-go-go-related gene (hERG) potassium channel (human, UniProt Q12809) (assay: primary screen, population patch clamp on CHO cells stably expressing hERG).
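Further: peak tail current of the secondary pulse compared with the same well before compound.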

human ether-à-go-go-related gene (hERG) potassium channel, sequence (Q12809 whole entry, looked up): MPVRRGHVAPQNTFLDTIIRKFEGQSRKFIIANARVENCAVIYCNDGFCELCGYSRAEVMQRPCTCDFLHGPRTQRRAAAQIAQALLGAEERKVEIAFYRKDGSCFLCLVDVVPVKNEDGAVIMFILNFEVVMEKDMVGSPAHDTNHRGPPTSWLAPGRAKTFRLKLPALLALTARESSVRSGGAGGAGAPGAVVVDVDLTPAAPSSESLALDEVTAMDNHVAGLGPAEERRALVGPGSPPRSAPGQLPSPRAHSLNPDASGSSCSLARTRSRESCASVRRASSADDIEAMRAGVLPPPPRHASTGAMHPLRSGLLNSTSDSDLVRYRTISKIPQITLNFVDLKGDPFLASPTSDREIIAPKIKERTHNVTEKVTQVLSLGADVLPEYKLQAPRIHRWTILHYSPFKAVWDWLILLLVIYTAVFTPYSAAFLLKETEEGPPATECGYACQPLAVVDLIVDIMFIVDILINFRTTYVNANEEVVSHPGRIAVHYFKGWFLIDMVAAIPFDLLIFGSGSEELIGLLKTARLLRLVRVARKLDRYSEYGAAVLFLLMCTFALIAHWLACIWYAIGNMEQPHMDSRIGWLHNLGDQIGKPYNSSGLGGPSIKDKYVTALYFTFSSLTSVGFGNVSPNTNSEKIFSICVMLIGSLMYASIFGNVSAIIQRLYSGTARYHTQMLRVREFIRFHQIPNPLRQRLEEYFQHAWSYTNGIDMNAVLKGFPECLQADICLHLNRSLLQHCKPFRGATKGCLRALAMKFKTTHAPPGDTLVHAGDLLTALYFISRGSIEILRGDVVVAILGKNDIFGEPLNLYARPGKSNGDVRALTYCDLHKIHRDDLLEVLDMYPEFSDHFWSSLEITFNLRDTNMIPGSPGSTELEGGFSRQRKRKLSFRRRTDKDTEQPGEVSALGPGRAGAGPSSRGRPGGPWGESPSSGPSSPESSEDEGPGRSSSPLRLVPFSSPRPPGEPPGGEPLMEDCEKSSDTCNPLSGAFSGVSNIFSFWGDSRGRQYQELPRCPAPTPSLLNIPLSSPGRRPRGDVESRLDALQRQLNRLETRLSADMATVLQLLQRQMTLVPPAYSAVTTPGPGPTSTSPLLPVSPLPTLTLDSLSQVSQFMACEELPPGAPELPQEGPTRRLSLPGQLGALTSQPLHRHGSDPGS

Compound	hERG current change (%, negative = inhibition) at 10uM [%]
Cc1cc(C)cc(NC(=O)c2nccnc2C(=O)O)c1	5.34
Cc1ccc(S(=O)(=O)C2(C(=O)NC3CCCCC3C)CC2)cc1 (centres unmarked)	7.09
COC(=O)C1N[C@@H]([C@@H](NC(=O)COc2ccccc2)C(=O)NCc2ccc(OC)cc2)SC1(C)C (some centres unmarked)	-12.5
O=S(=O)(c1cnc(Cl)c(Br)c1)N1CCCCCC1	-8.5
COc1ccc(S(=O)(=O)N2CCN(C3Cc4ccccc4C3)CC2)cc1	11.8
Cc1cc(Nc2cccc(Cl)c2)nc(NCc2ccccc2)n1	8.73
Cc1ccc(C2=NN(C(=O)CSc3nnnn3C)C(c3ccco3)C2)cc1 (centres unmarked)	17.1
Oc1ccc2nc(Cc3ccccc3)[nH]c2c1	13.2
Cc1ccc(NS(=O)(=O)c2ccccc2F)cc1S(=O)(=O)N1CCCCC1	-21.4
Cc1ccc(C(=O)Nc2ccccc2C(=O)NCc2ccco2)cc1S(=O)(=O)N1CCCCC1	-13.5
O=c1cc(-c2ccccc2)[nH]c2[nH]n(-c3ccccc3)c(=O)c12	-2.82
Cc1cccc(C(=O)OCC(=O)c2ccc3c(c2)OCO3)c1O	5.7
CC(c1nc2ccccc2c(=O)[nH]1)N1CCOCC1 (centres unmarked)	7.09
CCC(=O)N1c2ccccc2[C@@H](N(C(C)=O)c2ccccc2)C[C@H]1C	0.489
O=C(COc1ccccc1)Nc1c(C(=O)N2CCC(N3CCCCC3)CC2)oc2ccccc12	-69
CCn1nc(C(=O)Nc2cc(Cl)ccc2-n2cncn2)c2ccccc2c1=O	-4.32
O=C(Nc1ccc(S(=O)(=O)N2CCOCC2)cc1)c1cc(-c2ccccc2O)n[nH]1	11.7
CC1(C)Cc2nc(N3CCOCC3)c(C#N)cc2CO1	7.25
O=C1C(=O)N(CCN2CCOCC2)C(c2ccncc2)/C1=C(/O)c1ccc2c(c1)OCO2 (centres unmarked)	8.87

Compound	hERG current change (%, negative = inhibition) at 10uM [%]
CCOc1ccc(Oc2ccccc2NS(=O)(=O)c2ccc(CCC(=O)O)cc2)cc1	-1.05
CCc1nc2oc3cc(OC)ccc3c(=O)c2c(=O)n1-c1ccccc1	-2.43
O=C(CCN1CCCCO1)N1CCCC(N2CCN(c3ccc(F)cc3)CC2)C1 (centres unmarked)	-11.2
NC(N)=NC1=NC(=O)C(Cc2ccccc2)S1 (centres unmarked)	5.06
O=C(CSc1nc2c(sc3ccccc32)c(=O)n1Cc1ccco1)NCC1CCCO1 (centres unmarked)	-13.9
O=C(Cn1ccn(-c2ccc(F)c(F)c2)c(=O)c1=O)NCCc1ccccc1	10
O=C(Nc1cccc(O)c1)c1ccc(Br)cc1	-14.2
CN(CCC1CCCCO1)C(=O)CCc1nnc(CCCCc2ccccc2)o1 (centres unmarked)	-6.24
Nc1ccc(-c2nc3ccccc3s2)cn1	-4.49
CCN(CC)c1ccc(/C=c2\sc3nnc(-c4ccccc4Cl)n3c2=O)cc1	2.37
Clc1cccc(NCc2cn3cccnc3n2)c1	1.23
CCOC(=O)c1cnc(SCC(=O)OCC(=O)N(CC)C2CCS(=O)(=O)C2)nc1N (centres unmarked)	-7.63
COc1ccc(S(=O)(=O)NCCc2ccncc2)cc1	15.5
CN(C(=O)COC(=O)c1ccc(F)c(S(=O)(=O)N2CCOCC2)c1)C1CCS(=O)(=O)C1 (centres unmarked)	4.22
O=C(CN1C(=O)COCC1=O)N1CCOCC1	3.2
C#CCCc1cocc1/C=[N+](\[O-])c1ccc(C(=O)OCC)cc1	4.38
CC(=O)n1cc(C2C(=O)CCCC2=O)c2ccccc21	-1.91
O=C(O)c1ccc(-n2ncc3c2/C(=C/c2cccc([N+](=O)[O-])c2)CC3)cc1	29.2
Cc1nc(N=C(N)N)nc2c(C)cccc12	25.2

Compound	hERG current change (%, negative = inhibition) at 10uM [%]
COc1cc(CN2CCN(c3ncccn3)CC2)cc(OC)c1	-7.24
COc1ccc(C2=C(C=O)Cc3ccccc3O2)cc1	-19.9
O=C(CCc1c[nH]c2ccccc12)NN1C(=O)NC2(CCCCC2)C1=O	1.53
CC(=O)N1CCN(c2ccc(NC(=O)c3ccco3)cc2)CC1	16
COc1cc(C(=O)NCC(=O)NNC(=O)C2COc3ccccc3O2)cc(OC)c1OC (centres unmarked)	12
O=C(Nc1cccc(-n2cccn2)c1)C1CCCN(Cc2cccc(F)c2F)C1 (centres unmarked)	-17.8
NC1CCN(c2c(F)cc3c(=O)c(C(=O)O)cn(C4CC4)c3c2Cl)C1 (centres unmarked)	13.4
Cc1[nH]c2ccccc2c1N=Nc1cccc(C(=O)O)c1	28.2
COc1cc(NC(=S)NNC(=O)CC(C)C)c(OC)cc1Cl	10.8
COC(=O)CC1=NN(c2ccc(OC)cc2)C(=O)/C1=C\c1ccc(Cl)cc1	7.33
COc1ccc(C)cc1NC(=O)c1ccccc1N(C)S(=O)(=O)c1ccccc1	-1.38
CC1CCCCN1C(=O)CSc1nc(-c2ccccc2)cn1N (centres unmarked)	0.609
CCNS(=O)(=O)c1ccc(C(=O)OCc2cc(=O)oc3cc(OC)ccc23)cc1	-11.9
O=C(NCC(c1ccco1)N1CCc2ccccc21)C(=O)Nc1ccc(F)cc1F (centres unmarked)	-34.8
C/C(=N\Nc1ccc(C(=O)O)cc1)c1ccc2c(c1)Nc1ccccc1S2.O=S(=O)(O)O	-14.8
CCCCc1nc2ccccc2c(C(=O)O)c1C	7.29
Cc1cc(NS(=O)(=O)c2ccc(NC(=O)C(C)N3C(=O)c4ccccc4C3=O)cc2)nc(C)n1 (centres unmarked)	0.543
CCOC(=O)C1(P(=O)(c2ccccc2)c2ccccc2)CCC1	0.871
